In the RNAGym collection of RNA variant scans (doi:10.7554/elife.90254):
The source gives no read counts; variants with many changes may rest on few reads.

B1: LINE1-mini (parent)
chain: GGCAGAGCUCAACACAGCGUGGCAAAGUGGCUGUGGCUAGACUGCC

Variants of: B1
Experiment: self-cleavage, relative activity (ratio to wild type); higher = more cleavage; in vitro, sequencing; the parent is a self-cleaving ribozyme

Row | Variant | self-cleavage
1 | G2A A4G A6G U9A C15G | 0.04
2 | G1U G7C U9G G35C | 0.02
3 | G1U G22A G35A | 0.28
4 | G1U G29U G30U U34G G44C | 0.03
5 | G1U C15A U43A | 0
6 | G1U G2C A11U C13A A26C C46U | 0
7 | G1U G21C G27C | 0.18
8 | G1U G17A G21U G29A | 0.13
9 | G1U G29U G40C | 0.02
10 | G1U G17C C23A G33C G44A | 0.08
11 | G1U U32C G33C G35C | 0.05
12 | G1U U20A C23U | 0.3
13 | G1U C15A U20A G29U G40A U43G | 0.01
14 | G1U G21C C23A G29U | 0.27
15 | G1U G7U U9G A25G C37G G44U | 0.08
16 | G1U U9C G36C | 0
17 | G1U C18G G27C U38C | 0.02
18 | G1U C13U A26C G35U | 0.13
19 | G1U G21U C23A A39C | 0.04
20 | G1U U9A G33A | 0
21 | G1U G2A G22C U28C G44U | 0.13

Row | Variant | self-cleavage
22 | G1U G33A U43C | 0
23 | G1U G17A A41G | 0.02
24 | G1U G17A C42A | 0.03
25 | G1U G17A C42U | 0.06
26 | G1U C23A G44U | 0.21
27 | G1U G5C A16U G40C | 0.03
28 | G1U G7U U28C G29U | 0.02
29 | G1U G7U U9G G21A | 0.02
30 | G1U C13U C31A U32A U34C G40C | 0.06
31 | G1U C13G G29U | 0.16
32 | G1U G5U C15A C18A G29C U34A C45A | 0.01
33 | G1U U9A G30A C37G A39C | 0.05
34 | G1U U34A G35A | 0
35 | G1U G17U A26U G35C A41G C45U | 0.01
36 | G1U G7C C10G A12C C23U G29C U43G | 0
37 | G1U G7U G17C C31A | 0.01
38 | G1U U20C C23A G44A | 0.09
39 | G1U G29A G33A A41U | 0.03
40 | G1U U20A G33U | 0.06
41 | G1U G5U G30A | 0.1
42 | G1U G33U G40C | 0.01

Row | Variant | self-cleavage
43 | G1U U32G G40A | 0.03
44 | G1U C18G G21U C23A | 0.27
45 | G1U G2C G7U G44A | 0.04
46 | G1U G2U C8A C13G C42A | 0.1
47 | G1U C18U U34G | 0.03
48 | G1U G17A G33C | 0
49 | G1U G22U A26U | 0.43
50 | G1U G21A A24U G35U | 0.05
51 | G1U G5U U32C | 0.15
52 | G1U G21C C31A C42A C45U | 0.01
53 | G1U C15A C37U C46A | 0.03
54 | G1U G5A G35U A39U | 0.2
55 | G1U U34C G36U | 0.07
56 | G1U C18A U34C | 0.06
57 | G1U U43C G44C | 0.04
58 | G1U C13U A26U G33U | 0.03
59 | G1U G29U A39G | 0.07
60 | G1U G22C G40C G44C | 0.01
61 | G1U G5U A14C G17A | 0.01
62 | G1U G2C G22A G29A | 0.12
63 | G1U G22A C23U | 0.12

Row | Variant | self-cleavage
64 | G1U C23G U34A C42G U43A | 0.03
65 | G1U G5C C37A C46A | 0.01
66 | G1U G21U G35A C42U | 0.02
67 | G1U U9C G29C G40A | 0.01
68 | G2A A4C A26U U28G C46A | 0.08
69 | G1U C13U C23G G29A U34A | 0.06
70 | G1U G19C C23A | 0.1
71 | G1U G5C C18U C23A | 0.02
72 | G1U U32G C42U | 0.05
73 | G1U G17U A24G A26G | 0.08
74 | G1U G7A C10G | 0.02
75 | G1U C42A U43G C45G | 0.02
76 | G1U C31U C42A | 0.01
77 | G1U G7A C13A A14U G22U A41G | 0.03
78 | G1U G7A G27U G29U | 0.14
79 | G1U G5U G30A C42G U43G | 0
80 | G1U C13G U28C U34A C37A | 0.02
81 | G1U C18G G35A | 0.01
82 | G1U C13U C15G G21A | 0.02
83 | G1U G5A C46A | 0.18
84 | G1U G22U G30U | 0.96
